This passage reports binding results from publication PMC8211563.

Protein sequences, listed by entry. Tags and fused reporters are not part of them.
UniProt Q16665: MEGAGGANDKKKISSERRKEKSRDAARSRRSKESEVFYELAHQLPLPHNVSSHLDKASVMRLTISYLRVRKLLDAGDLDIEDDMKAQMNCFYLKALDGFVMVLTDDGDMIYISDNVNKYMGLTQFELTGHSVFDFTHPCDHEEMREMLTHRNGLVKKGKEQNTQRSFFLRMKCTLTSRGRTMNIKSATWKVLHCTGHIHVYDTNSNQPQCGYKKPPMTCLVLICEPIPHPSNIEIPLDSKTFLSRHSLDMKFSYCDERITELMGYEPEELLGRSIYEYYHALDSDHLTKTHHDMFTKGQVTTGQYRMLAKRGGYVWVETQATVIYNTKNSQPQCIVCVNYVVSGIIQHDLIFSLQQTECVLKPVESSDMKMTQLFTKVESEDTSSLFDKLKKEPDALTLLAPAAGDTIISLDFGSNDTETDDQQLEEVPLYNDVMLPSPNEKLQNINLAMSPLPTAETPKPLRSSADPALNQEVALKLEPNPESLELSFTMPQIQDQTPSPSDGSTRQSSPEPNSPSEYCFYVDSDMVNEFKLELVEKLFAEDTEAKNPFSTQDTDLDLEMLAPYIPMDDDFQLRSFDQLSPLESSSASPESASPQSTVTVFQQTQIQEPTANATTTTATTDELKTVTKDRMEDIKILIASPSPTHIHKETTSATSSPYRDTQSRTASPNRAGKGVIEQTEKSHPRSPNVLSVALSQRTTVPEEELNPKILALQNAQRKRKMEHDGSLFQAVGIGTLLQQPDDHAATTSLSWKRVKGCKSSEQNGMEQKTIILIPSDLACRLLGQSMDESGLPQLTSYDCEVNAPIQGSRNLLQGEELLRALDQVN
UniProt Q99814: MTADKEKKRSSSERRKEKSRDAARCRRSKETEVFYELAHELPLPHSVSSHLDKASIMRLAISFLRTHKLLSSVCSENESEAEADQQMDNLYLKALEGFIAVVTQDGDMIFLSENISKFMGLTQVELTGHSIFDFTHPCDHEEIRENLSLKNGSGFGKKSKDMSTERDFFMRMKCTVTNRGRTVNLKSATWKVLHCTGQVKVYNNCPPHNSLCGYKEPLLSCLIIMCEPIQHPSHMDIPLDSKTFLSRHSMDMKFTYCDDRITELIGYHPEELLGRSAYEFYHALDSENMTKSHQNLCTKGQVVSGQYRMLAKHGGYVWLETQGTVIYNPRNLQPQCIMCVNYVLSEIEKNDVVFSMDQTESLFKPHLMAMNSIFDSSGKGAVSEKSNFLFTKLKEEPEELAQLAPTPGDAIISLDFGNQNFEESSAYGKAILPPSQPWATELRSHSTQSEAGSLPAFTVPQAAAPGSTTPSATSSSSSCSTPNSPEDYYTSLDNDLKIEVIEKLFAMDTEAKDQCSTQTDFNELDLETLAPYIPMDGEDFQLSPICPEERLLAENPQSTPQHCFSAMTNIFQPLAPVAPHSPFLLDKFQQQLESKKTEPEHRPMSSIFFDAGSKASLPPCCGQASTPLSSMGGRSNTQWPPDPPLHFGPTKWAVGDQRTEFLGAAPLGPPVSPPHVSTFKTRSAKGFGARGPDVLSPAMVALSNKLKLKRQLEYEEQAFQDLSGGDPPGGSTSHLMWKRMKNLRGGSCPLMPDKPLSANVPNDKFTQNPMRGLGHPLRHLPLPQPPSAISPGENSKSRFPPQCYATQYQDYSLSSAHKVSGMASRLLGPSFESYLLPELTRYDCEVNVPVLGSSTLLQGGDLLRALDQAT
UniProt Q92793: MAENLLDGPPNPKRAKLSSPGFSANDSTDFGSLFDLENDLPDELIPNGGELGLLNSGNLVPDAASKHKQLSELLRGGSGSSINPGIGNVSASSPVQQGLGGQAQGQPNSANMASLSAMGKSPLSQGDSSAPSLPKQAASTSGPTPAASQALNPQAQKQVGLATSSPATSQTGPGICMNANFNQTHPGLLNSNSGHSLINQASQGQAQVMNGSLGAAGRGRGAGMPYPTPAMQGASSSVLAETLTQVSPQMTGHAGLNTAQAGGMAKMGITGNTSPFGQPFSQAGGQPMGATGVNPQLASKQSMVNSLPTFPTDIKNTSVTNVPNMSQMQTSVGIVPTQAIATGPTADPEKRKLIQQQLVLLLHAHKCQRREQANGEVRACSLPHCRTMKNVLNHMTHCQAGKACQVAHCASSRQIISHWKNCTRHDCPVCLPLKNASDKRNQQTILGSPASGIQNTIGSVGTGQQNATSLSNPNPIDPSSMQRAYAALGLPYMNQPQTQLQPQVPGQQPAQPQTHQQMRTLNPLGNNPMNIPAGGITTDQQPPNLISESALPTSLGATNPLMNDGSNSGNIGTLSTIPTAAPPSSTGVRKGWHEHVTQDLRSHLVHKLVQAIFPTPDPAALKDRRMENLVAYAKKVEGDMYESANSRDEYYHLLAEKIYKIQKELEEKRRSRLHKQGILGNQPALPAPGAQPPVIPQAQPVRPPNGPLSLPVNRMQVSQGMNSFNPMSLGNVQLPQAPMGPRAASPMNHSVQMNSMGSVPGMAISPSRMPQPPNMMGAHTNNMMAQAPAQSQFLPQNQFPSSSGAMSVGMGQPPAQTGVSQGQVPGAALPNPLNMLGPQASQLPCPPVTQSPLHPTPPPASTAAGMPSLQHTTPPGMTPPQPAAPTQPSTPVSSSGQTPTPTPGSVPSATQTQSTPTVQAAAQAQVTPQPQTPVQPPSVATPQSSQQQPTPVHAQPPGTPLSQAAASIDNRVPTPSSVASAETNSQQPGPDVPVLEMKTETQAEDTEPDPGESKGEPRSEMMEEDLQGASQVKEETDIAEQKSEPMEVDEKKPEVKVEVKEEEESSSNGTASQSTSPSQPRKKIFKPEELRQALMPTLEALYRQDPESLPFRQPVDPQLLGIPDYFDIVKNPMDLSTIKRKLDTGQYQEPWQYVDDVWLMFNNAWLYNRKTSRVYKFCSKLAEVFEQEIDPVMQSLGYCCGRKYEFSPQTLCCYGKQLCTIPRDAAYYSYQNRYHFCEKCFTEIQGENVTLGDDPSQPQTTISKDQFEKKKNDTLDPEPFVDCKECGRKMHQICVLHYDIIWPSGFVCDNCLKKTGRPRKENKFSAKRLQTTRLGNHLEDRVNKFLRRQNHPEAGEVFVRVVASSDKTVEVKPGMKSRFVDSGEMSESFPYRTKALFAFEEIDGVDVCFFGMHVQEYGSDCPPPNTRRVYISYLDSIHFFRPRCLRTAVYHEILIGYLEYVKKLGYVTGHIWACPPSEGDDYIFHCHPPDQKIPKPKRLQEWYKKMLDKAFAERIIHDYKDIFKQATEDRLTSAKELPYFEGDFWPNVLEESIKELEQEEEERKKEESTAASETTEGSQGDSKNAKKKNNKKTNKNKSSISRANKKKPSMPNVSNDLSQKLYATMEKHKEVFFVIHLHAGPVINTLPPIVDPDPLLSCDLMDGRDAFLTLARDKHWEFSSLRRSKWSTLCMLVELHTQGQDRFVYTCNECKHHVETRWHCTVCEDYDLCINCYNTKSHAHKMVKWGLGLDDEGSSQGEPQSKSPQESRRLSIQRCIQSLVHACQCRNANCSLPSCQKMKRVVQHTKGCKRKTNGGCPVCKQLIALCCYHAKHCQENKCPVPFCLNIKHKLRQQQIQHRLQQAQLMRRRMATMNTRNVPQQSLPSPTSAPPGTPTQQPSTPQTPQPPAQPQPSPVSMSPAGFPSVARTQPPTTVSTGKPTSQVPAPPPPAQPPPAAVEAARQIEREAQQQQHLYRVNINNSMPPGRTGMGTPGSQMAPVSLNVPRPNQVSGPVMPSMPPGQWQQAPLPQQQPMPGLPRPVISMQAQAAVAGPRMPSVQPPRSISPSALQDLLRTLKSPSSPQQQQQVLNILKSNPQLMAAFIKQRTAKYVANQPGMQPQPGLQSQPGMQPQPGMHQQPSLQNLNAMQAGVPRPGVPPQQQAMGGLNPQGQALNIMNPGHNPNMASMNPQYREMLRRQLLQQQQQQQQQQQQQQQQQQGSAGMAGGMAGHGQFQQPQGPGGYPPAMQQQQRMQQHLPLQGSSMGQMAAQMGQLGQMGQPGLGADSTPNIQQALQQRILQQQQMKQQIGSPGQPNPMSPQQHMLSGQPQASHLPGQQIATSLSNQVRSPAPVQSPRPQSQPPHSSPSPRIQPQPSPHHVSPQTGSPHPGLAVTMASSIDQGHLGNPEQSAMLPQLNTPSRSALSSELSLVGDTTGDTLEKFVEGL
UniProt Q09472: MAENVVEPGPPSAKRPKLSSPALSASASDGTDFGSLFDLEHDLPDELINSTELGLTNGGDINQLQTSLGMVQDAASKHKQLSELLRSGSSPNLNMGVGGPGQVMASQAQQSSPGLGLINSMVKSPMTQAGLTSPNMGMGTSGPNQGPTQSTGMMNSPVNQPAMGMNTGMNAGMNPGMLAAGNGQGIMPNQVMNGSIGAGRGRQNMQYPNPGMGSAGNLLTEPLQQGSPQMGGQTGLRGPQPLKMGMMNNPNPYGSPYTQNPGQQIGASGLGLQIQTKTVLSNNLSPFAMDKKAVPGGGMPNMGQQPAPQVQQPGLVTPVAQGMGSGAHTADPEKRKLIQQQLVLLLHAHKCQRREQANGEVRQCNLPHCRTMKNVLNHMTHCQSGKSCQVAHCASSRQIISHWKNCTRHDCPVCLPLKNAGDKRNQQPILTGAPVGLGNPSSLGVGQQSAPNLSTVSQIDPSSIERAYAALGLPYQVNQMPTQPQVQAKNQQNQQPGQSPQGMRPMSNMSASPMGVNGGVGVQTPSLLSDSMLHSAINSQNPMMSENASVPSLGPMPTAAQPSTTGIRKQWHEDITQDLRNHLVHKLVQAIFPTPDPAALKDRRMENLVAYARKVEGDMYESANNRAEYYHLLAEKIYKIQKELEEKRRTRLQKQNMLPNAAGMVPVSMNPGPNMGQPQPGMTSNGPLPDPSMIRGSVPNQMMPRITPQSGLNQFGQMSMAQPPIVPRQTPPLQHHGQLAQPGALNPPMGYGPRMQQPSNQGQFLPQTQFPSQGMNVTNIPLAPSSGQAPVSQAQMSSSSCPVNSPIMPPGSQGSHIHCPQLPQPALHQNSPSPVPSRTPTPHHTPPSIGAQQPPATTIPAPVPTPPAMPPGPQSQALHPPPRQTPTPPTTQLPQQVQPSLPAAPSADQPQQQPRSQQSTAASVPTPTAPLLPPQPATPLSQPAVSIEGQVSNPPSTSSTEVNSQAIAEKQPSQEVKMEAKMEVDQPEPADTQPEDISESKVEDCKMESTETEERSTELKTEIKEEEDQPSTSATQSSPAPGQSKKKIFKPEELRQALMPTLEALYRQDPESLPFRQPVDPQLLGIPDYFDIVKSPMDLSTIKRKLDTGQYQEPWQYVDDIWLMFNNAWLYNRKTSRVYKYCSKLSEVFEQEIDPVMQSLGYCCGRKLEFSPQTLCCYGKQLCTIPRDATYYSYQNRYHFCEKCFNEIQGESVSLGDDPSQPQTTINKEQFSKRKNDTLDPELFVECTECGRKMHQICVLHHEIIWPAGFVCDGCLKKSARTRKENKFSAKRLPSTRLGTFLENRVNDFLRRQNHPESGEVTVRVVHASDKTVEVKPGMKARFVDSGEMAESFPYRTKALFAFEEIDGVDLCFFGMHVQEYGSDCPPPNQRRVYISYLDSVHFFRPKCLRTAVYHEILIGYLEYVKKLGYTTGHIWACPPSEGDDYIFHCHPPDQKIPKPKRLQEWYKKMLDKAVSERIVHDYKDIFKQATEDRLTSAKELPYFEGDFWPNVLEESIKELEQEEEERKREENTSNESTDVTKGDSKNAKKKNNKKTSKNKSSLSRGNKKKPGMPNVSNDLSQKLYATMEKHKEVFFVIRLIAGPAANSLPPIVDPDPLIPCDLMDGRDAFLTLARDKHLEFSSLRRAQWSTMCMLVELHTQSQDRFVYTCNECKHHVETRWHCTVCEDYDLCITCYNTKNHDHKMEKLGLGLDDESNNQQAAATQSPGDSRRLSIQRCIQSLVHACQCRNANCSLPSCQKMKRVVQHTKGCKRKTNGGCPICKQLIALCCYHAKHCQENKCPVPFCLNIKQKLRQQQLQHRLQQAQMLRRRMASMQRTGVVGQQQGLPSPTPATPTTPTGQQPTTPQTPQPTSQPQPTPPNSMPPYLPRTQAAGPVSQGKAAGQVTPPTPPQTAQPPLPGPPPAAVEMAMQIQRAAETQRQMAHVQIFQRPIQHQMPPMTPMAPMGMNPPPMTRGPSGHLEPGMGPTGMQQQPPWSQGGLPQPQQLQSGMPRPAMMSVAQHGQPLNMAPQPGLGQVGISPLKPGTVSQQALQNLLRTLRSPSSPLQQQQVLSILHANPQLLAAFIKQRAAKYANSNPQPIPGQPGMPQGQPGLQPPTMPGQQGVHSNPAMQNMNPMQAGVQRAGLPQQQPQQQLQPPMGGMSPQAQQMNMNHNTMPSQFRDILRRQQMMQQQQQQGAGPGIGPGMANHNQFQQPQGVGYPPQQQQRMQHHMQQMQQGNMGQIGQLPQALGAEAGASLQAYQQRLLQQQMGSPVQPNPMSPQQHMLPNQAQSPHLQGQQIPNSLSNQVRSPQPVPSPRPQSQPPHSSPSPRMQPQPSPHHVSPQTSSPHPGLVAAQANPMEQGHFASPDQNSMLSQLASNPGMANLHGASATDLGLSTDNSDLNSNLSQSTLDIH

One assay concerns the target T1, HA-tagged NONO (human) (UniProt Q15233).
T1 sequence: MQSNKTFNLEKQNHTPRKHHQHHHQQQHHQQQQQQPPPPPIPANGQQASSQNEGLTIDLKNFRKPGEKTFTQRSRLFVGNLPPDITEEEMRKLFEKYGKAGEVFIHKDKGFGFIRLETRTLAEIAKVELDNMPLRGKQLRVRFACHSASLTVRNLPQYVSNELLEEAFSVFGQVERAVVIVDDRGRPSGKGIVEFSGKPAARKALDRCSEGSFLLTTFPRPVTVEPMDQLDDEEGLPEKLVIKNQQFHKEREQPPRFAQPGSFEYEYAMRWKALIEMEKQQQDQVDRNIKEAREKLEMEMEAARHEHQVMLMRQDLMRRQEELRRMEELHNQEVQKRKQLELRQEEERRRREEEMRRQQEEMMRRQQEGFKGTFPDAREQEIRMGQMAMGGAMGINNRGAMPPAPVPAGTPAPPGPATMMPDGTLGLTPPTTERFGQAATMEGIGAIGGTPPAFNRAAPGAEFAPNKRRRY
As to the kind of experiment: co-IP; HepG2 transfected with HA-tagged NONO for 24 h, then hypoxia (1% O2) or normoxia for 24 h; IP with anti-HA antibody, western blot; IgG as negative control.

Assay [1] concerns the target T2, p54nrb/NONO (54 kDa nuclear RNA- and DNA-binding protein/Non-POU-domain-containing octamer binding protein), endogenous (human (endogenous in Hep3B, HepG2)) (UniProt Q15233).
T2 sequence: T1 sequence
As to the kind of experiment: proximity ligation; in situ PLA on Hep3B cells under normoxia or hypoxia.

The target of assay [2] is HIF-1α, endogenous (human (endogenous in Hep3B, HepG2, Huh7)) (UniProt Q16665). As to the kind of experiment: co-IP; Huh7 cells with NONO knockout or not, 1% O2 for 24 h; IP with anti-HIF-1α antibody, western blot; IgG as negative control. On the technique in general: A western blot detects proteins with antibodies after separation by electrophoresis.
Assay [3] has the same target. As to the kind of experiment: proximity ligation; PLA in Hep3B cells in the presence or absence of NONO.
The target in assay [4] is T3, deletion mutant NONO (aa1-274) (human) (UniProt Q15233).
T3 sequence: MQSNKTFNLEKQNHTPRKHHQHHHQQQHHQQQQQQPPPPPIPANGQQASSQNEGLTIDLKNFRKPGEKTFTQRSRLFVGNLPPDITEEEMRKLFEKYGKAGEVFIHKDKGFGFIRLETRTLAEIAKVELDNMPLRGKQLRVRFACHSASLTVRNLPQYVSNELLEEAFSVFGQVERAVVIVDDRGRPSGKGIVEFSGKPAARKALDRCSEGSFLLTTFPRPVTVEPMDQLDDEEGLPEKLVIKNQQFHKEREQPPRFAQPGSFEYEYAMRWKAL
Put plainly: pull-down; lysates of HepG2 transfected with Flag-tagged HIF-1α or HIF-2α for 48 h, incubated with fragments of NONO in GST pull-down assays; only the target purified.

Another assay concerns the target T4, HA-tagged PSPC1 (UniProt Q8WXF1).
T4 sequence: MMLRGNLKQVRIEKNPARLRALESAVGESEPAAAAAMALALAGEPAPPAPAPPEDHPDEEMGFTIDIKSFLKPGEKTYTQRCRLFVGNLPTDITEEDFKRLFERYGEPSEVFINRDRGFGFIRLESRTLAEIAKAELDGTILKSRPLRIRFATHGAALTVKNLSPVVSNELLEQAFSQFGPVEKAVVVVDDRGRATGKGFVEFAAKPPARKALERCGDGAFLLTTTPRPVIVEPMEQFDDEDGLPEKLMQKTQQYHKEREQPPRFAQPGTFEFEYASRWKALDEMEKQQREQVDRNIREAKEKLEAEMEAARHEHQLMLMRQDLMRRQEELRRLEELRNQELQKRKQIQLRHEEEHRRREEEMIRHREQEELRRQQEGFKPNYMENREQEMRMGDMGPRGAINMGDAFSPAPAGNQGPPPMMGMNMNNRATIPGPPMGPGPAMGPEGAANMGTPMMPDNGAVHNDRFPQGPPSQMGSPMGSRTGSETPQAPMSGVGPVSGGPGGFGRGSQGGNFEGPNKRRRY
As to the kind of experiment: co-IP; HepG2 co-transfected with HA-tagged DBHS plasmids and Flag-tagged HIF-1α or HIF-2α for 48 h; IP with anti-HA antibody, western blot; IgG as negative control (for the HIF-1β panel no HIF-1β plasmid is told).

Another assay deals with T5, HA-tagged SFPQ (UniProt P23246).
T5 sequence: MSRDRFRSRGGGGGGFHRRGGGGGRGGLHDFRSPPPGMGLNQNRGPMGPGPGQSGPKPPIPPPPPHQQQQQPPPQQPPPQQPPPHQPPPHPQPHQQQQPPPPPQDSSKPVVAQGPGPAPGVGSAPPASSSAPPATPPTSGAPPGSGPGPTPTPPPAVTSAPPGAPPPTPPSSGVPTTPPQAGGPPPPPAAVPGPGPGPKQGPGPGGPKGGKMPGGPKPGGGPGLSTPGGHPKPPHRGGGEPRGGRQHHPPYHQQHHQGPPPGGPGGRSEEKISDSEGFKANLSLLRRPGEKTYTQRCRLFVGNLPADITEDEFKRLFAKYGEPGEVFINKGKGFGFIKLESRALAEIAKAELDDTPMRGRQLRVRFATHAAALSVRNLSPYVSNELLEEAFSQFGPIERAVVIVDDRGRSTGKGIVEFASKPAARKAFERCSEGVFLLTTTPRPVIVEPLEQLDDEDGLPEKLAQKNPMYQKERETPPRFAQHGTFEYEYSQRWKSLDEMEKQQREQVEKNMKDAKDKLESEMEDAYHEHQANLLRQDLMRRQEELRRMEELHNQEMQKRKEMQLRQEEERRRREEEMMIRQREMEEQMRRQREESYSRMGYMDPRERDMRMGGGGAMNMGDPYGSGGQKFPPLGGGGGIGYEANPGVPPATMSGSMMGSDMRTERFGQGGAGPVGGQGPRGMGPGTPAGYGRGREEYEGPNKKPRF
Described as above.

For assay [5], the target named is T6, PSPC1 in HepG2 cells (PLA) (human (endogenous in HepG2)) (UniProt Q8WXF1).
T6 sequence: T4 sequence
Put plainly: proximity ligation; PLA in HepG2 cells, DBHS proteins with HIF-1α, HIF-1β or HIF-2α.

Assay [6] deals with T7, SFPQ in HepG2 cells (PLA) (human (endogenous in HepG2)) (UniProt P23246).
T7 sequence: T5 sequence
Described as above.

A further assay addresses HA-tagged HIF-2α (UniProt Q99814). Put plainly: co-IP; HepG2 transfected with HA-tagged HIF-2α for 48 h, lysates incubated with HA-tagged beads, immunoblot of endogenous p300; with or without NONO; IgG as negative control.
Assay [7] addresses HIF-2α, endogenous (human (endogenous in Hep3B, HepG2, SMMC-7721)) (UniProt Q99814). Put plainly: proximity ligation; PLA in SMMC-7721 cells in the presence or absence of NONO.

Results are given in words; binding and its absence hold for the method and conditions named. Binding seen in cells or lysates may run through a third protein. Some results given as binding are weak or reduced against the parent protein; the word gives no strength. For some of these results: Tags and fused reporters may be left off the sequences shown.

For the substance “CBP, endogenous (from UniProt Q92793 1-2442)”, the binding result (with HA-tagged NONO (human); in assay [1]; in assay [2]; in assay [3]) was “binds” each time.
Consider “Flag-tagged HIF-1α (from UniProt Q16665 1-826)”, for which the binding result in assay [4] was “no binding”; with HA-tagged PSPC1 it was “binds weakly”; in the assay with HA-tagged SFPQ, “binds weakly”.
As to “Flag-tagged HIF-2α (from UniProt Q99814 1-870)”, the binding entry was “no binding” in [4], “no binding” with HA-tagged PSPC1 and “binds” with HA-tagged SFPQ.
For the substance “HIF-1α, endogenous (from UniProt Q16665 1-826)”, the binding entry in [5] is given as “binds weakly”; in [6] it was “binds weakly”; in the assay with HA-tagged NONO (human), “binds”; in assay [1], “binds”.
Take “HIF-1β, endogenous (from UniProt P27540 1-789)”: the binding entry (in [5]; in [6]; with HA-tagged PSPC1; with HA-tagged SFPQ; with HA-tagged NONO (human); in assay [1]) was “binds” in each case.
In the case of “HIF-2α, endogenous (from UniProt Q99814 1-870)”, the binding result is “no binding” in [5], “binds” in assay [6], “binds” with HA-tagged NONO (human) and “binds” in [1].
With “p300, endogenous (from UniProt Q09472 1-2414)”, the binding result (with HA-tagged NONO (human); in [1]; in the assay with HA-tagged HIF-2α; in assay [7]) was “binds” each time.
